Data taken from US11999716B2, “WDR5 inhibitors and modulators” (priority 2018, dated 2024).
Where two headings read alike, the source gives them in different places.

Target: WDR5 (Homo sapiens, UniProt P61964)
Test: biochemical
Type: binding
Details: WDR5-His tag (Δ23, residues 24-334) 2 nM, 10mer-Thr-FAM probe 150 nM, Tb-anti-HIS 1 nM, 60 min, room temperature
[1] = Ki for Inhibition of WDR5 by TR-FRET assay
[2] = read-out: Ki for Inhibition of WDR5 by TR-FRET assay

In the case of `CCn1cc(-c2cc(Cc3cnc[nH]3)cc3c2CCN([C@@H](C)c2cc(OC)ccn2)C3=O)c(C(F)(F)F)n1` [Example 250, (S)-7-((1H-Imidazol-5-yl)methyl)-5-(1-ethyl-3-(trifluoromethyl)-1H-pyrazol-4-yl)-2-(1-(4-methoxypyridin-2-yl)ethyl)-3,4-dihydroisoquinolin-1(2H)-one], the Ki [1] is reported as < 0.05 nM.
In the case of `COc1ccnc([C@H](C2CC2)N2CCc3c(cc(Cn4ccnc4C)cc3-c3cn(C)nc3C(F)(F)F)C2=O)c1` [Example 251, (S)-2-(Cyclopropyl(4-methoxypyridin-2-yl)methyl)-7-((2-methyl-1H-imidazol-1-yl)methyl)-5-(1-methyl-3-(trifluoromethyl)-1H-pyrazol-4-yl)-3,4-dihydroisoquinolin-1(2H)-one], the Ki [1] is reported as < 0.05 nM.
For `COc1ccnc([C@H](C2CC2)N2CCc3c(cc(Cn4ccnc4)cc3-c3cn(C)nc3C(F)(F)F)C2=O)c1` [Example 252, (S)-7-((1H-Imidazol-1-yl)methyl)-2-(cyclopropyl(4-methoxypyridin-2-yl)methyl)-5-(1-methyl-3-(trifluoromethyl)-1H-pyrazol-4-yl)-3,4-dihydroisoquinolin-1(2H)-one], the Ki [2] was < 0.05 nM.
`Cc1nccn1Cc1cc2c(c(-c3cn(C)nc3C(F)(F)F)c1)CCN(c1ccc(F)cc1OCC1CC1)C2=O` [Example 253, 2-(2-(Cyclopropylmethoxy)-4-fluorophenyl)-7-((2-methyl-1H-imidazol-1-yl)methyl)-5-(1-methyl-3-(trifluoromethyl)-1H-pyrazol-4-yl)-3,4-dihydroisoquinolin-1(2H)-one] was tested, and the Ki [2] was 0.21 nM.
With `CCn1cc(-c2cc(Cc3nccn3C)cc3c2CCN([C@@H](C)c2cc(OC)ccn2)C3=O)c(C(F)(F)F)n1` [Example 254, (S)-5-(1-Ethyl-3-(trifluoromethyl)-1H-pyrazol-4-yl)-2-(1-(4-methoxypyridin-2-yl)ethyl)-7-((1-methyl-1H-imidazol-2-yl)methyl)-3,4-dihydroisoquinolin-1(2H)-one] the Ki [2] was 0.095 nM.
`Cc1nccn1Cc1cc2c(c(-c3cn(C)nc3C(F)(F)F)c1)CCN(c1ccccc1OC(F)(F)F)C2=O` [Example 255, 7-((2-Methyl-1H-imidazol-1-yl)methyl)-5-(1-methyl-3-(trifluoromethyl)-1H-pyrazol-4-yl)-2-(2-(trifluoromethoxy)phenyl)-3,4-dihydroisoquinolin-1(2H)-one] gave a Ki [2] of 0.58 nM.
For `Cc1nccn1Cc1cc2c(c(-c3cn(C)nc3C(F)(F)F)c1)CCN(c1ccccc1OC(C)C)C2=O` [Example 256, 2-(2-Isopropoxyphenyl)-7-((2-methyl-1H-imidazol-1-yl)methyl)-5-(1-methyl-3-(trifluoromethyl)-1H-pyrazol-4-yl)-3,4-dihydroisoquinolin-1(2H)-one], the Ki [2] was 2.4 nM.
With `CCn1cc(-c2cc(Cc3cncn3C)cc3c2CCN([C@@H](C)c2cc(OC)ccn2)C3=O)c(C(F)(F)F)n1` [Example 257, (S)-5-(1-Ethyl-3-(trifluoromethyl)-1H-pyrazol-4-yl)-2-(1-(4-methoxypyridin-2-yl)ethyl)-7-((1-methyl-1H-imidazol-5-yl)methyl)-3,4-dihydroisoquinolin-1(2H)-one] the Ki [1] was < 0.05 nM.
